About 2,200 (0.71%) of roughly 310,000 compounds showed an effect of 50% or more. Effects have a minus sign here. The list shows a part of the results.
Molecular target: human ether-à-go-go-related gene (hERG) potassium channel (human, UniProt Q12809)
Assay: primary screen, population patch clamp on CHO cells stably expressing hERG

human ether-à-go-go-related gene (hERG) potassium channel, sequence (Q12809 whole entry, looked up): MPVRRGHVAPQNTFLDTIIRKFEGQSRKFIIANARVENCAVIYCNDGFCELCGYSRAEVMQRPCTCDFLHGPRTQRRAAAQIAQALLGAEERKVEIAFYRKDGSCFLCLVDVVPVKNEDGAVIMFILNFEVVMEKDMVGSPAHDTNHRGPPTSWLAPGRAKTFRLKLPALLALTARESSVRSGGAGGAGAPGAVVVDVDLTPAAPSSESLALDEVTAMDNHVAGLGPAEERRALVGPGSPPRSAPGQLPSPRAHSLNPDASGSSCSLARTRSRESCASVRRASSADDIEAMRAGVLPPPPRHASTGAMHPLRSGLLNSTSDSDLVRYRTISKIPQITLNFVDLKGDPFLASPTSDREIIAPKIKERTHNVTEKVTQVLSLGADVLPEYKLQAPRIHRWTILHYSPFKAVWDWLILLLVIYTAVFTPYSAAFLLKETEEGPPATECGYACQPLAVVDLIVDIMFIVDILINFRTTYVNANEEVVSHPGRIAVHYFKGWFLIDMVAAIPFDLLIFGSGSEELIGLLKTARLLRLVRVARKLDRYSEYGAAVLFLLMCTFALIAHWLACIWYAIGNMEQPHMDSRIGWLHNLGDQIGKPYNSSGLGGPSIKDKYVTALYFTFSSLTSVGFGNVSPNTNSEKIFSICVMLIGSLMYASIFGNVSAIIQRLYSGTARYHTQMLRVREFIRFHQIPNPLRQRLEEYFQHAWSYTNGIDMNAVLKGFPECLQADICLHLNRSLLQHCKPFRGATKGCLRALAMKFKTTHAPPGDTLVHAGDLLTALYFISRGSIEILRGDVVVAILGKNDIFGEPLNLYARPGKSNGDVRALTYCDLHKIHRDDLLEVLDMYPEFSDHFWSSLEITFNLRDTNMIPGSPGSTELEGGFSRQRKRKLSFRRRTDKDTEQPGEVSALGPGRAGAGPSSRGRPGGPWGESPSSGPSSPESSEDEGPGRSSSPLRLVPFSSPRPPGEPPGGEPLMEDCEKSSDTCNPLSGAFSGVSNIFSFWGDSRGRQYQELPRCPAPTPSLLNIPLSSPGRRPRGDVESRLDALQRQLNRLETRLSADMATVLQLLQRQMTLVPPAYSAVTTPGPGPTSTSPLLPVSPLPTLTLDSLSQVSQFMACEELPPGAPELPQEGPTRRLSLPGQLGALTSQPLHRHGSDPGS

| Structure (SMILES) | hERG current change (%, negative = inhibition) at 1uM |
| --- | --- |
| CCOC(=O)c1ccc(NC(=O)CSc2nc3ncccc3[nH]2)cc1 | 3.18% |
| Cc1nnc(NC2=NCCC2)o1 | 4.91% |
| Cc1cc(NC(=O)C2(c3ccccc3)CCCC2)no1 | 14.4% |
| CC/C(=N/NC(=O)CCC(=O)Nc1ccccc1OC)c1ccccc1 | 7.96% |
| O=C(CNc1cccc(C(F)(F)F)c1)N/N=C/c1cccc(Br)c1 | 14.3% |
| Cc1ccc(NC(=O)CNC(=O)c2ccco2)nc1 | 14.1% |
| Cc1ccccc1-n1c([O-])c([C@@H](c2cc[nH+]cc2)c2c(O)n(-c3ccccc3C)c(=O)[nH]c2=O)c(=O)[nH]c1=O | 20.3% |
| CCCOc1ccc(C(=O)CCC(=O)NNC(=O)Cn2nc(C)cc2C)cc1 | 13% |
| O=C(Nc1cccc(N=Cc2cc(Cl)cc(Br)c2O)c1)c1ccco1 | 3.8% |
| CCCCN(C(=O)NC(=O)Nc1ccccc1OC)S(C)(=O)=O | 6.65% |
| CC(=O)c1c(C(C)=O)c(C)n(-c2ccc(O)cc2)c1C | -7.34% |
| O=C(COC(=O)c1cc(F)cc(F)c1)NCCCc1ccccc1 | 11.7% |
| COc1ccccc1N1C(=O)CCC1(C#N)c1ccc(Br)cc1 (stereo not shown) | 5.05% |
| COc1nc2ccccc2nc1N1CCN(c2ccc(F)cc2)CC1 | 13.9% |
| COc1ccc(/C=N\NC(=O)CNC(=O)C(c2ccccc2)c2ccccc2)cc1[N+](=O)[O-] | -7.74% |
| COCCCNC(=O)c1ccc(NC(C)=O)cc1 | 4.38% |
| C#CC(CC)(CC)NC(=O)c1c(C)noc1C | -5.74% |
| COc1cccc(CN2C(=O)c3cccc(N)c3C2=O)c1 | 4.68% |
| Cc1ccc(S(=O)(=O)/N=S(/C)c2ccccc2)cc1 (stereo not shown) | 9.01% |
| COc1ccc(-c2ccc(C3C(C#N)=C(N)Oc4n[nH]c(C)c43)o2)cc1 (stereo not shown) | 14.6% |
| CS(=O)(=O)N1CCCC(C(=O)NCc2ccc(F)cc2Cl)C1 (stereo not shown) | 7.67% |
| CC1(C)Cc2c(sc(NC(=O)C(=O)N3CCCC3)c2C(=O)O)CO1 | 8.46% |
| Cc1cc(C(=O)c2ccccc2)nc2ccccc12 | 10.7% |

| Structure (SMILES) | hERG current change (%, negative = inhibition) at 1uM |
| --- | --- |
| Cc1cccc(CNC(=O)CC2C(=O)NCCN2C2CCCC2)c1 (stereo not shown) | 17.5% |
| COc1ccc(N2CCN(C(=O)CSc3ccccc3N)CC2)cc1 | 8.83% |
| O=C1CCCC(O)=C1C1NCCc2ccccc21 (stereo not shown) | 9.52% |
| COc1ccc(CN(CC(=O)NC2CCCC2)C(=O)CCC(=O)Nc2nc(C)cs2)cc1 | -8.94% |
| COc1ccc(C2(C(F)(F)F)NC(=O)N(C)C(=O)N2C)cc1 (stereo not shown) | 2.41% |
| Cc1sc2ncnc(N3CCC(C(=O)Oc4cccc(Cl)c4Cl)CC3)c2c1C | 16.1% |
| FC(F)(F)c1ccccc1N/N=C/c1cccnc1 | 13.9% |
| Cc1ccc(OCc2nnc(SCC(=O)Nc3sc(C)c(C)c3C#N)n2C)cc1 | 18.3% |
| Cc1ccc2[nH]c3c(N4CCc5ccccc5C4)ncnc3c2c1 | 4.65% |
| CN(CC(=O)Nc1nccs1)S(=O)(=O)c1ccc(F)cc1 | 1.55% |
| Cc1ccc(Nc2nc(N)c([N+](=O)[O-])c(N3CCOCC3)n2)cc1C | 9.34% |
| O=C(C(Sc1ccccc1)c1ccccc1)N1CCN(c2ccccc2)CC1 (stereo not shown) | 14.9% |
| Cc1ccc(-c2cc(C(F)F)n3ncc(C(=O)N4CCc5ccccc5C4)c3n2)cc1 | 9.96% |
| CC(=O)NCCc1nc2ccccc2n1Cc1cccc(C)c1 | 2.8% |
| O=C(c1cccc(Br)c1)N1CCN(c2ccccn2)CC1 | 14.9% |
| O=C(CN1C(=O)CC(c2ccco2)Sc2ccccc21)NC1CCCCC1 (stereo not shown) | -10.2% |
| CC(=O)Nc1ccc(Oc2nc(C)cc(C)n2)cc1 | 9.47% |
| Cc1cccc(N2CCN(S(=O)(=O)c3ccc4c(c3)CCCN4C(=O)C3CCC3)CC2C)c1 (stereo not shown) | 11% |
| Cc1nn(CC(=O)NCc2ccccc2Cl)c(C)c1[N+](=O)[O-] | 13.3% |
| COc1ccc(C(=O)Nc2cc([N+](=O)[O-])ccc2N2CCN(C)CC2)cc1 | -9.81% |
| C#CCn1c(=NC(=O)CSCC(=O)N2CCOCC2)sc2ccccc21 | 10.8% |
| COc1ccc(-c2[nH]c(-c3ccc(C)cc3)nc2SCC(=O)NC2CCCC2)cc1 | 3.67% |
| NC(=O)NC(=O)C(Nc1ccc2c(c1)CCC2)c1ccccc1 (stereo not shown) | 16.8% |

| Structure (SMILES) | hERG current change (%, negative = inhibition) at 1uM |
| --- | --- |
| CN(C(=O)c1ccc(Br)o1)C1(C)CCS(=O)(=O)C1 (stereo not shown) | 17.1% |
| O=C(COC(=O)c1cc(=O)c2ccccc2o1)Nc1cc(Cl)ccc1Cl | 1.69% |
| CC(=O)Nc1ccc(NC(=O)CSc2ncnc3sc(C)c(C)c23)cc1 | 11.8% |
| COc1ccc(S(=O)(=O)Nc2c(C)nc3nc[nH]n3c2=O)cc1 | 17% |
| CC(=O)N/C(=C/C(C)C)c1ccccc1 | 15.2% |
| Cc1noc(C)c1Cc1ccc(O)cc1 | 6.38% |
| Cc1cccc(Oc2ccccc2NC(=O)c2cnccn2)c1 | 9.92% |
| Cc1noc(C)c1S(=O)(=O)N(Cc1ccccc1)C(C)C | 8.89% |
| O=C(Cn1nc(C(F)F)cc1C1CC1)NCCC1=CCCCC1 | 9.48% |
| Cc1nc(-c2ccc(C(=O)N3CCOCC3)cc2)cs1 | 7.02% |
| O=C(CCCCCn1c(=S)[nH]c2cc3c(cc2c1=O)OCO3)N1CCN(C(=O)c2ccco2)CC1 | -2.83% |
| CCC(=O)c1ccc(OCCn2cnc3ccccc32)cc1.Cl | 5.6% |
| COc1ccc(SC[C@H](Cc2ccccc2)N2CC[C@@H](NC(=O)OCc3ccccc3)CCC2=O)cc1 | 5.35% |
| O=C(Nc1ccc2c(c1)OCO2)c1ccc2nc[nH]c2c1 | -0.122% |
| NS(=O)(=O)c1ccc(NC(=O)NC2CCCCC2)cc1 | 11.1% |
| CC(=O)c1c(C)[nH]c(C(=O)OCC(=O)c2c(N)n(CC(C)C)c(=O)n(C)c2=O)c1C | 1.66% |
| CC1(C)Oc2ccc3ccc(=O)oc3c2/C(=C/Nc2cccc(O)c2)C1=O | 9.86% |
| Clc1ccc(-c2n[nH]c3c2Cc2ccccc2-3)cc1Cl | 19% |
| COc1ccc(-n2c(SCC(=O)NCc3ccco3)nc3sc4c(c3c2=O)CCN(C)C4)cc1 | 9.08% |
| Cc1cccc(OCc2nnc(SCCC(=O)O)n2-c2ccccc2)c1 | 16.2% |
| CN(CCCCOc1ccc(F)cc1)Cc1ccccc1.O=C(O)C(=O)O | -6.33% |
| COC(=O)c1ccc(COC(=O)CCS(=O)(=O)c2ccc(C)cc2)cc1 | -2.06% |
| CC(=O)C1=C(C)Nc2ncnn2C1c1ccc(Cl)cc1 (stereo not shown) | -4.77% |

| Structure (SMILES) | hERG current change (%, negative = inhibition) at 1uM |
| --- | --- |
| COC(=O)c1ccc(NC(=O)c2ccccc2C(=O)Nc2ccc(C(=O)OC)cc2)cc1 | 16.7% |
| CCc1c(O)nc2ccccn2c1=O | 9.63% |
| O=C(CCCn1c(=O)[nH]c2ccc(Br)cc2c1=O)NCc1ccc(Cl)cc1 | 8.41% |
| O=C(CN1CCOCC1)OCCCc1ccccc1 | 12.3% |
| O=C(c1noc2c1CCCC2)N1CCN(c2ccccc2)CC1 | -15.8% |
| O=C(CN(C(=O)CCC(=O)Nc1nccs1)c1ccccc1F)NCCc1ccccc1 | 19.5% |
| CCOC(=O)CCc1c(C(=O)OCC)[nH]c(CC)c1C(=O)OCc1ccccc1 | 0.747% |
| CCOc1ccccc1NC(=O)N1CCC(c2nc3ccc(C)cc3[nH]2)CC1 | -17.8% |
| CCN(CC)CC1(O)CCN(C(=O)c2ccc(Cl)c(Cl)c2)CC1 | 7.95% |
| O=S(=O)(c1ccc2ccccc2c1)N1CCCOC1 | 0.776% |
| CCCCc1cc(=O)oc2c(C)c(OCC(=O)N3CCCC3)ccc12 | -29.8% |
| Cc1cccc(C)c1N=C1C(=O)Nc2ccccc21 | 12.9% |
| Cn1cc([N+](=O)[O-])c(C(=O)N2CCN(Cc3ccc4c(c3)OCO4)CC2)n1 | 41.5% |
| Cc1ccc(S(=O)(=O)c2nc(S(C)(=O)=O)sc2NCc2ccc3c(c2)OCO3)cc1 | 5.9% |
| O=C1C=C(c2ccccc2)C[C@@H](c2ccc(Cl)cc2)C1 | 14% |
| Cc1ccc(N2C(=O)NC3(CCCCC3)C2=O)cc1 | 9.12% |
| CCOC(=O)C1CCCN(CCC(=O)Nc2cc(C)ccc2C)C1.Cl (stereo not shown) | -8.02% |
| CCOCN(C(=O)Cn1c(COC)nc2ccccc21)c1c(C)cccc1CC | 7.91% |
| CCN(CC)CCCN1C(=O)c2oc3ccccc3c(=O)c2C1c1cccc(OC)c1OC (stereo not shown) | 3.66% |
| O=C(NCCCN1CCOCC1)c1ccc2c(=O)n(-c3ccc(F)c(Cl)c3)c(=S)[nH]c2c1 | 15.3% |
| CCC(=O)N(CCC(c1ccco1)C(C)C)Cc1ccccc1 (stereo not shown) | -3.31% |
| O=C(NNS(=O)(=O)c1ccccc1)c1cnn(-c2ccccc2)c1-n1cccc1 | 9.1% |
